Experimental data taken from PubChem BioAssay (Tox21).
Values joined by “and” are separate entries in the source; they are usually repeats but may differ in a detail not shown here. Identical values can stand only once. The shares of active, inactive and inconclusive entries below differ from those in the screen. Where the call is inconclusive, the potency comes from a doubtful curve fit. Some compounds were tested as several samples or in several runs, with calls that do not always agree. Active and inactive are the calls of the source. Calls come from the whole dose curve; as a rule, active = well fitted curve in the direction sought with a large enough effect in the repeat runs; inconclusive = weak or mixed curves; inactive = no such curve, though single readings can be large; an effect the other way counts as inactive or inconclusive.

Assay: qHTS assay to identify small molecule agonists of the sonic hedgehog signaling (Shh) pathway - cell viability counter screen (AID 1259366); note: nearly all actives have a fitted effect of over 50% in size
Settings: NIH/3T3 Gli1-Luc viability, CellTiter-Fluor, 24 h; series mostly up to 92.4 µM; viability change, negative = cytotoxic: at the top concentration
In short: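 Compounds in DMSO were pin-transferred onto 3T3 Gli1-Luc cells that had settled 4hr; plates then stood 24hr at 37C and 5% CO2. One hour before the end, CellTiter-Fluor was added and fluorescence recorded.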
% is set by controls: 0 for no effect and ±100 for the full control effect; potency is the fitted concentration of half-maximal effect; tags give direction and shape of the fitted curve.

Question: With CC(=O)OC1CCC(C(C)(C)C)CC1 (stereo not drawn) as the molecule, how does the “viability change, negative = cytotoxic” value read?
Answer: The value was inactive: 5.85%.

Question: For CCCCCCCC/C=C\CCCCCCCC(=O)O, which Potency is on record?
Answer: Its Potency is “inactive”.

Question: For CCCCN(CCCC)C(C(N)=O)c1ccc(OC)cc1 (stereo not drawn), which “viability change, negative = cytotoxic” value is on record?
Answer: Its value is inactive: -5.18% [at 42.5 µM].

Question: For C[C@@H]1O[C@@H](OC[C@H]2O[C@@H](Oc3c(-c4ccc(O)c(O)c4)oc4cc(O)cc(O)c4c3=O)[C@H](O)[C@@H](O)[C@@H]2O)[C@H](O)[C@H](O)[C@H]1O, which Potency is on record?
Answer: The Potency was inconclusive: 38.8 µM [cytotoxic, partial curve].

Question: Which Potency does the source give for Cc1ccc(N(CC2=NCCN2)c2cccc(O)c2)cc1 here?
Answer: The Potency was inconclusive: 26.6 µM [cytotoxic, partial curve, poor fit].

Question: Which “viability change, negative = cytotoxic” value does the source give for CC(C)CC(C)CC(C)CC(C)COC(=O)c1ccccc1C(=O)OCC(C)CC(C)CC(C)CC(C)C (stereo not drawn) here?
Answer: Its value is inactive: -3.65%.

Question: Which Potency does the source give for NCCCCCCN here?
Answer: Its Potency is inconclusive: 15.5 µM [cytotoxic, full curve].

Question: With CCC(C)(CCC(C)C)C(=O)[O-].CCC(C)(CCC(C)C)C(=O)[O-].[Zn+2] (stereo not drawn) as the molecule, how does the Potency read?
Answer: Its Potency is inconclusive: 68.6 µM [cytotoxic, single point].

Question: With C1=CCC2CC=CC2C1 (stereo not drawn) as the molecule, how does the “viability change, negative = cytotoxic” value read?
Answer: Its value is inactive: -4.51%.

Question: With O=S(=O)(Cl)c1c(Cl)cccc1Cl as the molecule, how does the Potency read?
Answer: Its Potency is inconclusive: 68.2 µM [cytotoxic, single point].

Question: Which Potency does the source give for C[C@H]1c2cccc(O)c2C(O)=C2C(=O)[C@]3(O)C(O)=C(C(N)=O)C(=O)[C@@H](N(C)C)[C@@H]3[C@@H](O)[C@@H]21 here?
Answer: The Potency was inconclusive: 26.6 µM [rising, partial curve].

Question: Which Potency does the source give for CCCCCCCCCCCCCCCO here?
Answer: The Potency was active: 30.9 µM.

Question: With CC(=O)c1ccc2c(c1)[C@H](NC(=O)c1ccc(F)cc1)[C@@H](O)C(C)(C)O2 as the molecule, how does the Potency read?
Answer: The Potency was inconclusive: 25.7 µM [cytotoxic, partial curve].

Question: For COc1ccc(C2C(=O)c3ccccc3C2=O)cc1, which Potency is on record?
Answer: The Potency was inconclusive: 21.1 µM [cytotoxic].

Question: For CC(C)c1c(C(=O)Nc2ccccc2)c(-c2ccccc2)c(-c2ccc(F)cc2)n1CC[C@@H](O)C[C@@H](O)CC(=O)O, which Potency is on record?
Answer: The Potency was inconclusive: 18.6 µM [cytotoxic, partial curve] and inactive.

Question: With COc1ccc(CCN(C)CCCN2CCc3cc(OC)c(OC)cc3CC2=O)cc1OC as the molecule, how does the Potency read?
Answer: Its Potency is inconclusive: 33.5 µM [cytotoxic, partial curve, poor fit].

Question: With [Cl][Nd]([Cl])[Cl] as the molecule, how does the Potency read?
Answer: The Potency was inconclusive: 43.3 µM [rising, partial curve].

Question: With Oc1cccc(O)c1O as the molecule, how does the Potency read?
Answer: Its Potency is inconclusive: 60.6 µM [cytotoxic, partial curve].

Question: With C/C=C(\C)C(C)=O as the molecule, how does the “viability change, negative = cytotoxic” value read?
Answer: Its value is inactive: 1.55%.

Assay: qHTS assay to identify small molecule antagonists of the sonic hedgehog signaling (Shh) pathway - cell viability counter screen (AID 1259367); note: nearly all actives have a fitted effect of over 55% in size
Settings: NIH/3T3 Gli1-Luc viability, CellTiter-Fluor, 24 h; series mostly up to 92.4 µM; viability change, negative = cytotoxic: at the top concentration
In short: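 Fluorescence read-out (CellTiter-Fluor, 1 hr at 37C) taken after 23 hr compound treatment of 3T3 Gli1-Luc cells stimulated with conditioned medium. Cells were seeded at 2,000 per well and pre-incubated 4 hr.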

Question: For C[C@@H]1O[C@@H](OC[C@H]2O[C@@H](Oc3c(-c4ccc(O)c(O)c4)oc4cc(O)cc(O)c4c3=O)[C@H](O)[C@@H](O)[C@@H]2O)[C@H](O)[C@H](O)[C@H]1O, which Potency is on record?
Answer: Its Potency is inconclusive: 27.5 µM [cytotoxic, partial curve].

Question: Which Potency does the source give for OCC(CO)n1cnc(-c2ccc(F)cc2)c1-c1ccnc(Oc2ccccc2)n1 here?
Answer: The Potency was inconclusive: 68.5 µM [cytotoxic, partial curve, poor fit].

Question: With CCCSSCCC as the molecule, how does the “viability change, negative = cytotoxic” value read?
Answer: The value was inactive: 2.37%.

Question: With Cc1ccc(Br)cc1 as the molecule, how does the “viability change, negative = cytotoxic” value read?
Answer: Its value is inactive: 1.4%.

Question: Which Potency does the source give for CC1(C)O[C@@H]2[C@@H](CO[C@@]3(COS(N)(=O)=O)OC(C)(C)O[C@@H]23)O1 here?
Answer: Its Potency is “inactive”.

Question: Which Potency does the source give for CNC[C@H](O)c1ccc(O)c(O)c1 here?
Answer: Its Potency is inconclusive: 61.2 µM [cytotoxic, partial curve, poor fit].

Question: With C=C[Si](OC(C)=O)(OC(C)=O)OC(C)=O as the molecule, how does the Potency read?
Answer: Its Potency is inconclusive: 68.6 µM [cytotoxic].

Question: With O=S(=O)(O)c1ccc(O)c2ncccc12 as the molecule, how does the “viability change, negative = cytotoxic” value read?
Answer: The value was inactive: 15.1%.

Question: With NCCCCCCN as the molecule, how does the Potency read?
Answer: The Potency was inconclusive: 27.5 µM [cytotoxic, partial curve].

Question: For CCC(C)(CCC(C)C)C(=O)[O-].CCC(C)(CCC(C)C)C(=O)[O-].[Zn+2] (stereo not drawn), which “viability change, negative = cytotoxic” value is on record?
Answer: The value was inactive: -1.41%.

Question: Which Potency does the source give for CC(C)[C@@H]1CC[C@@H](C)CC1=O here?
Answer: The Potency was inconclusive: 61.1 µM [cytotoxic, single point].

Question: For CCCCOCCOCCOC(=O)CCCCC(=O)OCCOCCOCCCC, which Potency is on record?
Answer: Its Potency is “inactive”.

Question: For C[C@H]1c2cccc(O)c2C(O)=C2C(=O)[C@]3(O)C(O)=C(C(N)=O)C(=O)[C@@H](N(C)C)[C@@H]3[C@@H](O)[C@@H]21, which Potency is on record?
Answer: The Potency was inconclusive: 29.8 µM [rising, single point].

Question: Which Potency does the source give for CCCOC(=O)c1ccccc1 here?
Answer: The Potency was “inactive”.

Question: For CCCCCCCCCCCCCCCO, which Potency is on record?
Answer: Its Potency is inconclusive: 69.1 µM [cytotoxic, single point] and inactive.

Question: With CC(=O)c1ccc2c(c1)[C@H](NC(=O)c1ccc(F)cc1)[C@@H](O)C(C)(C)O2 as the molecule, how does the Potency read?
Answer: Its Potency is inconclusive: 28.8 µM [cytotoxic, partial curve].

Question: Which Potency does the source give for COc1ccc(C2C(=O)c3ccccc3C2=O)cc1 here?
Answer: The Potency was inconclusive: 21.1 µM [cytotoxic, partial curve].

Question: For COCCOCC(OC)OC, which “viability change, negative = cytotoxic” value is on record?
Answer: The value was inactive: 2.02% [at 42.5 µM].

Question: With CCOC(=O)CS as the molecule, how does the Potency read?
Answer: Its Potency is inconclusive: 28.1 µM [cytotoxic, single point].

Question: With CC(C)c1c(C(=O)Nc2ccccc2)c(-c2ccccc2)c(-c2ccc(F)cc2)n1CC[C@@H](O)C[C@@H](O)CC(=O)O as the molecule, how does the Potency read?
Answer: The Potency was inconclusive: 23.4 µM [cytotoxic, partial curve, poor fit] and inconclusive: 50.9 µM [cytotoxic, partial curve, poor fit].

Question: Which “viability change, negative = cytotoxic” value does the source give for C1COC(NC(C2CC2)C2CC2)=N1 here?
Answer: The value was inactive: -0.694% [at 42.5 µM].

Question: For [Cl][Nd]([Cl])[Cl], which Potency is on record?
Answer: The Potency was inconclusive: 8.63 µM [rising, full curve].

Question: With C#Cc1ccc(-c2ccccc2F)cc1 as the molecule, how does the “viability change, negative = cytotoxic” value read?
Answer: Its value is inactive: -1.1% [at 42.5 µM].

Question: With CC(C)(C)C(O)/C=C/c1ccc2c(c1)OCO2 (stereo not drawn) as the molecule, how does the “viability change, negative = cytotoxic” value read?
Answer: The value was inactive: 2.41% [at 42.5 µM].
